Source: the supplement of paper PMC7238544
Counter-ions that a name gives are not always drawn. ± gives the standard deviation of the averaged measurements. The list shows a part of the results.

system: hAMSC donor 2; test: Hoechst total cell count ratio vs vehicle control; hAMSC are human adipose-derived mesenchymal stem cells given an EGFP-luciferase plasmid by lipofection; higher = more cells (less toxicity); details: priming compound concentration 100 µM
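Further: compound added 30 min before Lipofectamine 3000 lipoplex delivery, triplicate-well means expressed against DMSO vehicle control wells of the same 96-well plate.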

Row | Structure (SMILES) | Hoechst total cell count ratio
1 | CN1CCN(c2nc3cc(C(F)(F)F)ccc3n3cccc23)CC1 | 0.244 ± 0.04
2 | CN1C(C(=O)Nc2ccccn2)=C(O)c2ccccc2S1(=O)=O [Piroxicam] | 0.499 ± 0.26
3 | CC(=O)N1CCN(c2ccc(OCC3COC(Cn4ccnc4)(c4ccc(Cl)cc4Cl)O3)cc2)CC1 (stereo not drawn) [Ketoconazole] | 0.951 ± 0.028
4 | CN(C)C(=O)C(CCN1CCC(O)(c2ccc(Cl)cc2)CC1)(c1ccccc1)c1ccccc1 [Loperamide hydrochloride] | 0.025 ± 0.018
5 | CN(CCO)CC(O)Cn1cnc2c1c(=O)n(C)c(=O)n2C (stereo not drawn) [Xanthinol nicotinate] | 1.27 ± 0.22
6 | CCC1=C(C)CN(C(=O)NCCc2ccc(S(=O)(=O)NC(=O)N[C@H]3CC[C@H](C)CC3)cc2)C1=O [Glimepiride] | 1.14 ± 0.069
7 | CN(C)c1ccc(O)c2c1C[C@H]1C[C@H]3[C@H](N(C)C)C(O)=C(C(N)=O)C(=O)[C@@]3(O)C(O)=C1C2=O [Minocycline hydrochloride] | 0.98 ± 0.15
8 | Nc1nnc(-c2cccc(Cl)c2Cl)c(N)n1 [Lamotrigine] | 1.11 ± 0.073
9 | COCC1=C(C(=O)OC(C)OC(=O)OC(C)C)N2C(=O)[C@@H](NC(=O)/C(=N\OC)c3csc(N)n3)[C@H]2SC1 (stereo partly drawn) [Cefpodoxime proxetil] | 0.958 ± 0.21
10 | CCn1cc(C(=O)O)c(=O)c2ccc(C)nc21 [Nalidixic acid] | 0.991 ± 0.12
11 | O=C(N[C@H](CO)[C@H](O)c1ccc([N+](=O)[O-])cc1)C(Cl)Cl [Chloramphenicol] | 1.2 ± 0.2
12 | C#C[C@]1(O)CC[C@H]2[C@@H]3[C@H](C)CC4=C(CCC(=O)C4)[C@H]3CC[C@@]21C [Tibolone] | 1.38 ± 0.3
13 | Cc1nnc(SCC2=C(C(=O)O)N3C(=O)[C@@H](NC(=O)Cn4cnnn4)[C@H]3SC2)s1 [Cefazolin sodium] | 1.03 ± 0.16
14 | CN(C)CC/C=C1/c2ccccc2COc2ccc(CC(=O)O)cc21 [Olopatadine hydrochloride] | 1.48 ± 0.4
15 | O=C1CN(/N=C/c2ccc([N+](=O)[O-])o2)C(=O)N1 [Nitrofurantoin] | 1.11 ± 0.38
16 | CC(Oc1c(Cl)cccc1Cl)C1=NCCN1 (stereo not drawn) [Lofexidine hydrochloride] | 1.23 ± 0.22
17 | CC(=O)SCC(Cc1ccccc1)C(=O)NCC(=O)OCc1ccccc1 (stereo not drawn) [Racecadotril] | 1.84 ± 0.52

Row | Structure (SMILES) | Hoechst total cell count ratio
18 | COc1cccc2c1C(=O)c1c(O)c3c(c(O)c1C2=O)C[C@@](O)(C(=O)CO)C[C@@H]3O[C@H]1C[C@H](N)[C@H](O)[C@H](C)O1 [Doxorubicin hydrochloride] | 0.108 ± 0.014
19 | CC1(C)S[C@@H]2[C@H](/N=C/N3CCCCCC3)C(=O)N2[C@H]1C(=O)O [Mecillinam] | 0.992 ± 0.18
20 | C[C@]12CC[C@@H]3c4ccc(OS(=O)(=O)O)cc4CC[C@H]3[C@@H]1CCC2=O [Estrone 3-sulfate sodium salt] | 1.42 ± 0.089
21 | CC(C)NCC(O)COc1ccc(CC(N)=O)cc1 (stereo not drawn) [Atenolol] | 1.22 ± 0.048
22 | Cc1cc2c(s1)Nc1ccccc1N=C2N1CCN(C)CC1 [Olanzapine] | 1.06 ± 0.11
23 | C[C@H](CCC(=O)O)[C@H]1CC[C@H]2[C@@H]3C(=O)C[C@@H]4CC(=O)CC[C@]4(C)[C@H]3CC(=O)[C@]12C [Dehydrocholic acid] | 0.804 ± 0.083
24 | COc1cc(C(=O)NS(=O)(=O)c2ccccc2C)ccc1Cc1cn(C)c2ccc(NC(=O)OC3CCCC3)cc12 [Zafirlukast] | 1.7 ± 0.27
25 | CN(C)CCc1c[nH]c2ccc(C[C@H]3COC(=O)N3)cc12 [Zolmitriptan] | 1.26 ± 0.26
26 | O=C(O)Cc1ccccc1Nc1c(Cl)cccc1Cl [Diclofenac sodium] | 1.05 ± 0.097
27 | O=C(O)c1cc(/N=N/c2ccc(S(=O)(=O)Nc3ccccn3)cc2)ccc1O [Sulfasalazine] | 1.2 ± 0.23
28 | CC1(C)O[C@@H]2C[C@H]3[C@@H]4C[C@H](F)C5=CC(=O)C=C[C@]5(C)[C@@]4(F)[C@@H](O)C[C@]3(C)[C@]2(C(=O)CO)O1 [Fluocinolone acetonide] | 1.08 ± 0.11
29 | CC(=O)CCCCn1cnc2c1c(=O)n(C)c(=O)n2C [Lomifylline] | 1.38 ± 0.18
30 | CCc1nc(N)nc(N)c1-c1ccc(Cl)cc1 [Pyrimethamine] | 1.51 ± 0.39
31 | COc1cc2nc(N3CCN(C(=O)C4CCCO4)CC3)nc(N)c2cc1OC (stereo not drawn) [Terazosin] | 1.25 ± 0.26
32 | CNC(=C[N+](=O)[O-])NCCSCc1csc(CN(C)C)n1 [Nizatidine] | 0.888 ± 0.049
33 | CC(=O)O[C@H]1C[C@@H]2CC[C@@H]3[C@H](CC[C@@]4(C)[C@H]3C[C@H]([N+]3(C)CCCCC3)[C@@H]4OC(C)=O)[C@@]2(C)C[C@@H]1N1CCCCC1 [Vecuronium bromide] | 1.37 ± 0.15
